Results as given in the supplement of paper PMC4967469.

Key:
Assay in all cases: Viability of human cancer cell lines after 72 h of drug (GDSC screen)
TW-37 = compound: CC(C)c1ccccc1Cc1cc(C(=O)Nc2ccc(S(=O)(=O)c3ccccc3C(C)(C)C)cc2)c(O)c(O)c1O [TW-37]; settings: top dose 5 µM
Method: (§1)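 Human cancer cell lines in 384-well plates, medium with 10% serum, drug for 72 h over a 256-fold dose range (nine 2-fold or five 4-fold steps up to the top dose). Adherent lines were fixed and stained with the nucleic acid dye Syto60, suspension lines read with resazurin; signal relative to control wells, capped at 0 and 100%. One two-parameter sigmoid per drug and line, fitted in a mixed model over all curves with the slope shared within a line.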

Gemcitabine = compound: Nc1ccn([C@@H]2O[C@H](CO)[C@@H](O)C2(F)F)c(=O)n1 [Gemcitabine]; settings: top dose 1.024 µM
Method: as §1

AUY922 = compound: CCNC(=O)c1noc(-c2cc(C(C)C)c(O)cc2O)c1-c1ccc(CN2CCOCC2)cc1 [AUY922]; settings: top dose 0.256 µM; top dose inferred
Method: as §1

GNF-2 = compound: NC(=O)c1cccc(-c2cc(Nc3ccc(OC(F)(F)F)cc3)ncn2)c1 [GNF-2]; settings: top dose 1.28 µM; top dose inferred
Method: as §1

Bicalutamide = compound: CC(O)(CS(=O)(=O)c1ccc(F)cc1)C(=O)Nc1ccc(C#N)c(C(F)(F)F)c1 [Bicalutamide]; settings: top dose inferred
Method: as §1

KIN001-270 = compound: Cc1ccc(Nc2cc(-c3cccc(N4C(=O)c5ccccc5C4=O)c3)ncn2)cc1NS(C)(=O)=O [KIN001-270]; settings: top dose 20 µM; top dose inferred
Method: as §1

T0901317 = compound: O=S(=O)(c1ccccc1)N(CC(F)(F)F)c1ccc(C(O)(C(F)(F)F)C(F)(F)F)cc1 [T0901317]; settings: top dose 10.24 µM; top dose inferred
Method: as §1

Nilotinib = compound: Cc1cn(-c2cc(NC(=O)c3ccc(C)c(Nc4nccc(-c5cccnc5)n4)c3)cc(C(F)(F)F)c2)cn1 [Nilotinib]; settings: top dose 2 µM
Method: as §1

LFM-A13 = compound: C/C(O)=C(\C#N)C(=O)Nc1cc(Br)ccc1Br [LFM-A13]; settings: top dose 16 µM; top dose inferred
Method: as §1

MP470 = compound: S=C(NCc1ccc2c(c1)OCO2)N1CCN(c2ncnc3c2oc2ccccc23)CC1 [MP470]; settings: top dose 20 µM; top dose inferred
Method: as §1

[1] = top dose 1.024 µM, screen: GDSC drug entry 150
[2] = top dose 10 µM, screen: GDSC drug entry 1502

| Cell Line | AUC (TW-37) | IC50 (TW-37) | AUC (Gemcitabine) | IC50 (Gemcitabine) | AUC (AUY922) | IC50 (AUY922) | AUC (GNF-2) | IC50 (GNF-2) | AUC (Bicalutamide; [1]) | IC50 (Bicalutamide; [1]) | AUC (Bicalutamide; [2]) | IC50 (Bicalutamide; [2]) | AUC (KIN001-270) | IC50 (KIN001-270) | AUC (T0901317) | IC50 (T0901317) | AUC (Nilotinib) | IC50 (Nilotinib) | AUC (LFM-A13) | IC50 (LFM-A13) | AUC (MP470) | IC50 (MP470) |
| --- | --- | --- | --- | --- | --- | --- | --- | --- | --- | --- | --- | --- | --- | --- | --- | --- | --- | --- | --- | --- | --- | --- |
| KARPAS-620 (haematopoietic neoplasm, suspension) | 0.525 | 362 nM | 0.735 | 265 nM | 0.47 | 13.4 nM | 0.991 | > 1280 nM | 0.986 | > 1020 nM | 0.988 | > 10000 nM | 0.939 | > 20 µM | 0.944 | > 10.2 µM | 0.987 | > 2000 nM | 0.974 | > 16 µM | 0.845 | 11.5 µM |
| NCI-H1581 (large cell lung carcinoma, semi-adherent) | 0.358 | 131 nM | 0.909 | > 1020 nM | 0.926 | > 256 nM | 0.988 | > 1280 nM | 0.99 | > 1020 nM | 0.971 | > 10000 nM | 0.965 | > 20 µM | 0.963 | > 10.2 µM | 0.98 | > 2000 nM | 0.985 | > 16 µM | 0.881 | 18.1 µM |
| GT3TKB (stomach, adherent) | 0.515 | 341 nM | 0.258 | 14.4 nM | 0.449 | 11.8 nM | 0.966 | > 1280 nM | 0.99 | > 1020 nM | 0.971 | > 10000 nM | 0.983 | > 20 µM | 0.981 | > 10.2 µM | 0.98 | > 2000 nM | 0.982 | > 16 µM | 0.888 | 18 µM |
| LC4-1 (lymphoblastic leukaemia, suspension) | 0.881 | > 5000 nM | 0.607 | 130 nM | 0.682 | 54.7 nM | 0.98 | > 1280 nM | 0.984 | > 1020 nM | 0.979 | > 10000 nM | 0.949 | > 20 µM | 0.771 | 4.35 µM | 0.972 | > 2000 nM | 0.929 | > 16 µM | 0.881 | > 20 µM |
| OCUB-M (breast, adherent) | 0.369 | 144 nM | 0.178 | 8.25 nM | 0.559 | 22.7 nM | 0.982 | > 1280 nM | 0.989 | > 1020 nM | 0.971 | > 10000 nM | 0.949 | > 20 µM | 0.939 | > 10.2 µM | 0.977 | > 2000 nM | 0.979 | > 16 µM | 0.316 | 0.414 µM |
| UACC-257 (melanoma, adherent) | 0.6 | 629 nM | 0.63 | 160 nM | 0.698 | 66.6 nM | 0.965 | > 1280 nM | 0.982 | > 1020 nM | 0.933 | > 10000 nM | 0.976 | > 20 µM | 0.979 | > 10.2 µM | 0.977 | > 2000 nM | 0.971 | > 16 µM | 0.859 | > 20 µM |
| KURAMOCHI (ovary, adherent) | 0.721 | 1480 nM | 0.894 | > 1020 nM | 0.62 | 36.1 nM | 0.969 | > 1280 nM | 0.984 | > 1020 nM | 0.982 | > 10000 nM | 0.984 | > 20 µM | 0.984 | > 10.2 µM | 0.984 | > 2000 nM | 0.969 | > 16 µM | 0.981 | > 20 µM |
| NCI-SNU-16 (stomach, suspension) | 0.972 | > 5000 nM | 0.991 | > 1020 nM | 0.991 | > 256 nM | 0.991 | > 1280 nM | 0.989 | > 1020 nM | 0.99 | > 10000 nM | 0.991 | > 20 µM | 0.966 | > 10.2 µM | 0.99 | > 2000 nM | 0.991 | > 16 µM | 0.951 | > 20 µM |
| TE-5 (oesophagus, adherent) | 0.68 | 1080 nM | 0.117 | < 4 nM | 0.957 | > 256 nM | 0.984 | > 1280 nM | 0.982 | > 1020 nM | 0.965 | > 10000 nM | 0.984 | > 20 µM | 0.981 | > 10.2 µM | 0.956 | > 2000 nM | 0.961 | > 16 µM | 0.944 | > 20 µM |
| GCIY (stomach, adherent) | 0.389 | 148 nM | 0.562 | 96.4 nM | 0.569 | 25.4 nM | 0.975 | > 1280 nM | 0.973 | > 1020 nM |  |  | 0.964 | > 20 µM | 0.86 | > 10.2 µM | 0.981 | > 2000 nM | 0.941 | > 16 µM | 0.788 | 10 µM |
| SF268 (glioma, adherent) | 0.483 | 279 nM | 0.177 | 6.13 nM | 0.651 | 43.6 nM | 0.985 | > 1280 nM | 0.985 | > 1020 nM | 0.944 | > 10000 nM | 0.935 | > 20 µM | 0.982 | > 10.2 µM | 0.97 | > 2000 nM | 0.978 | > 16 µM | 0.89 | > 20 µM |
| BB30-HNC (head and neck, adherent) | 0.392 | 159 nM | 0.061 | < 4 nM | 0.394 | 8.21 nM | 0.985 | > 1280 nM | 0.986 | > 1020 nM | 0.982 | > 10000 nM | 0.92 | > 20 µM | 0.974 | > 10.2 µM | 0.967 | > 2000 nM | 0.974 | > 16 µM | 0.936 | > 20 µM |
| SK-N-DZ (neuroblastoma, adherent) | 0.347 | 118 nM | 0.71 | 248 nM | 0.736 | 74.6 nM | 0.983 | > 1280 nM | 0.988 | > 1020 nM | 0.987 | > 10000 nM | 0.966 | > 20 µM | 0.958 | > 10.2 µM | 0.984 | > 2000 nM | 0.891 | > 16 µM | 0.332 | 0.429 µM |
| NCI-SNU-5 (stomach, suspension) | 0.658 | 866 nM | 0.537 | 80.9 nM | 0.776 | 103 nM | 0.989 | > 1280 nM | 0.989 | > 1020 nM | 0.978 | > 10000 nM | 0.989 | > 20 µM | 0.983 | > 10.2 µM | 0.986 | > 2000 nM | 0.989 | > 16 µM | 0.935 | > 20 µM |
| NCI-H524 (small cell lung carcinoma, suspension) | 0.492 | 299 nM | 0.956 | > 1020 nM | 0.988 | > 256 nM | 0.977 | > 1280 nM | 0.99 | > 1020 nM | 0.99 | > 10000 nM | 0.991 | > 20 µM | 0.99 | > 10.2 µM | 0.98 | > 2000 nM | 0.991 | > 16 µM | 0.945 | > 20 µM |
| ES4 (Ewing sarcoma, adherent) | 0.466 | 249 nM | 0.053 | < 4 nM | 0.368 | 6.53 nM | 0.964 | > 1280 nM | 0.981 | > 1020 nM | 0.979 | > 10000 nM | 0.98 | > 20 µM | 0.98 | > 10.2 µM | 0.963 | > 2000 nM | 0.968 | > 16 µM | 0.934 | > 20 µM |
| Raji (Burkitt lymphoma, suspension) | 0.76 | 1650 nM | 0.727 | 269 nM | 0.814 | 128 nM | 0.984 | > 1280 nM | 0.99 | > 1020 nM | 0.986 | > 10000 nM | 0.971 | > 20 µM | 0.963 | > 10.2 µM | 0.99 | > 2000 nM | 0.982 | > 16 µM | 0.974 | > 20 µM |

By IC50 is meant the dose at which the fit gives 50% viability; a fit beyond the top or the lowest dose is shown as a bound at that dose. AUC, from the same fit, is the share of area under the viability curve across the 256-fold dose range; values near 1 show little effect. For part of these data: The top dose, if marked as inferred, was calculated from the reported fits. For part of these data: Where an entry number is given, a second screen of the drug exists; the two often differ.
